From the supplement of paper PMC6135742 come the findings set out here.

Counter-ions that a name gives are not always drawn. ± gives the standard deviation of the averaged measurements. Whole data set: some 2,600 compounds, median “total cell number (DAPI+ nuclei) relative to DMSO vehicle control” near -1.4, cut for the lowest 2% near -23. This is one part of the list.

The test concerns jimpy (Plp1 jimpy) mouse iPSC-derived oligodendrocyte progenitor cells. Briefly: total cell number (DAPI+ nuclei) relative to DMSO vehicle control (SDs above negative control mean); higher = more surviving cells. To be noted: 10 µM; 3 days.
With `Cc1cc(OCc2nnc(SC3CCCC3)n2-c2cccnc2)ccc1-c1ccc(S(C)(=O)=O)cc1`, the total cell number was -16.3. In the case of `COCCc1ccc(OCC(O)CNC(C)C)cc1` (racemic) [(±)-Metoprolol (+)-tartrate] it was -1.34. In the case of `CCCCCCCCCCCC[N+](C)(C)CCOc1ccccc1` [Domiphen Bromide] it was -16.4. `Cc1ccc(-n2nc(C(C)(C)C)cc2NC(=O)Nc2ccc(OCCN3CCOCC3)c3ccccc23)cc1` [BIRB 796 (Doramapimod)] came in with a total cell number of -0.00893. `NC(=O)c1cccc(N)c1` [3-aminobenzamide] showed a total cell number of 1.33. Take `CN1C2CCC1CC(OC(=O)C(O)c1ccccc1)C2` (stereo unspecified) [Homatropine Bromide]: the total cell number was determined as 0.583. Regarding `CC(N)(Cc1ccc(O)c(O)c1)C(=O)O` (racemic) [(±)-3-(3,4-dihydroxyphenyl)-2-methyl-DL-alanine], the total cell number is -2.34. In the case of `CCCOc1ccc(C(=O)OCCN(CC)CC)cc1N` [Proparacaine HCl] it was -0.938. Regarding `CC(C)C[C@H](NC(=O)CNC(=O)c1cc(Cl)ccc1Cl)B1OC(=O)C(CC(=O)O)(CC(=O)O)O1`, the total cell number was -12. `CC[C@@H](CO)NCCN[C@@H](CC)CO` [Ethambutol HCl] returned a total cell number of -0.925. In the case of `CN(C)CCC(c1ccc(Br)cc1)c1ccccn1` (single isomer, unassigned; (+)) [(+)-Brompheniramine maleate], the total cell number was -6.24. The molecule `CCN(CC)CCCCNc1ncc2cc(-c3cc(OC)cc(OC)c3)c(NC(=O)NC(C)(C)C)nc2n1` displayed a total cell number of -24.8. In the case of `C[C@@H]1COC(Nc2ccc3ncnc(Nc4ccc(OCc5nccs5)c(Cl)c4)c3c2)=N1` [Varlitinib] it was -7.68; in that of `O=C(/C=C/c1ccc(O)c(O)c1)O[C@@H]1C[C@](O)(C(=O)O)C[C@@H](O)[C@H]1O` [Chlorogenic Acid], -0.603; in that of `Oc1cccc(-c2nc(N3CCOCC3)c3oc4ncccc4c3n2)c1`, -21.

For `C#CCn1c(=O)c2c(ncn2C)n(C)c1=O` [3,7-Dimethyl-1-propargylxanthine], the total cell number was -1.05.

`N#C/C(=C\c1ccc(O)c(O)c1)C(=O)NCc1ccccc1` [AG-490 (Tyrphostin B42)] registered a total cell number of -15. Molecule `C#C[C@]1(O)CC[C@H]2[C@@H]3CCC4=CC(=O)CC[C@@H]4[C@H]3CC[C@@]21CC` [Levonorgestrel] came in with a total cell number of -0.33. In turn, `CCC(=O)Nc1cccc(Oc2nc(Nc3ccc(N4CCN(C)CC4)cc3OC)ncc2Cl)c1` yielded a total cell number of -15.2. In the case of `C=CC(=O)Nc1cccc(Nc2nc(Nc3ccc(OCCOC)cc3)ncc2F)c1` it was -15.3; in that of `O=C(O)CP(=O)(O)O` [Phosphonoacetic acid], -2.04; in that of `Cn1ccc2cc3c(cc21)CCN3C(=O)Nc1cccnc1`, -1.53. `CCCCN(CC)c1nc(C)nc2c1c(C)cn2-c1c(C)cc(C)cc1C` registered a total cell number of 2.06. In the case of `N#CC(C#N)=C(N)/C(C#N)=C/c1cc(O)c(O)c(O)c1` [Tyrphostin 51] it was -1.44; in that of `CCN(CC)CCCCCCCCOC(=O)c1cc(OC)c(OC)c(OC)c1` [TMB-8 hydrochloride], 2.1.

As for `NNC(=O)CSc1nc2scc(-c3ccccc3)c2c(=O)n1-c1ccccc1`, the total cell number is -1.08. For the molecule `Nc1ccn([C@@H]2CS[C@H](CO)O2)c(=O)n1` [Lamivudine], the total cell number came out at 0.634. With `CCc1c(Cl)c(O)c(Cl)c(O)c1C(=O)O[C@H]1[C@H](O)[C@H](OC)[C@H](OC/C2=C\C=C\C[C@H](O)/C(C)=C/[C@H](CC)[C@@H](O[C@@H]3OC(C)(C)[C@@H](OC(=O)C(C)C)[C@H](O)[C@@H]3O)/C(C)=C/C(C)=C/C[C@@H]([C@@H](C)O)OC2=O)O[C@@H]1C` [Fidaxomicin] the figure was 0.133. As for `Cc1cc(N)c2ccccc2[n+]1CCCCCCCCCC[n+]1c(C)cc(N)c2ccccc21` [Dequalinium chloride hydrate], the total cell number was -10.8. As for `COc1ccccc1OCC(O)COC(N)=O` (stereo unspecified) [Methocarbamol], the total cell number was -0.688.

The molecule `Oc1cc2c(cc1O)C(c1ccccc1)CNCC2` (racemic) gave a total cell number of 1.89.

`C[C@@H]1C(=O)NC2=Nc3cccc(Cl)c3CN21` [Quazinone]: the total cell number is -1.61. For `COC(=O)Nc1nc2cc([S+]([O-])c3ccccc3)ccc2[nH]1` (stereo unspecified) [Oxfendazole], the total cell number is -5.83. Regarding `COc1cccc(C(=O)NCCN2CCN(c3ccc(Cl)cc3)CC2)c1`, the total cell number was -2.1.

For `NS(=O)(=O)c1ccc(-n2nc(C(F)(F)F)cc2-c2ccc(Cl)cc2)cc1`, the total cell number amounted to 0.298. In the case of `O=C(Nc1ccccc1)Nc1ccc(-c2ccc(C(=O)[C@@H]3CCC[C@H]3C(=O)O)cc2)cc1` it was -0.73; in that of `OC[C@@H](O)[C@@H](O)[C@@H](O)CO` [Ribitol], 0.0535. `CN(C)C/C=C/C(=O)Nc1cc2c(Nc3ccc(F)c(Cl)c3)ncnc2cc1O[C@H]1CCOC1` [Afatinib (BIBW2992)]: the total cell number is -25.6. `CN1Cc2c(N)cccc2C(c2ccccc2)C1` (stereo unspecified) [Nomifensine maleate] displayed a total cell number of -1.48. Regarding `O=C1NC(=O)C(=Cc2ccc(-c3ccc(F)cc3)o2)S1` (stereo in doubt), the total cell number is -1.17. In turn, `CC(C)(O)c1ccccc1CC[C@@H](SCC1(CC(=O)O)CC1)c1cccc(/C=C/c2ccc3ccc(Cl)cc3n2)c1` [Montelukast Sodium] returned a total cell number of -0.0603. Turning to `O=C1NC(=O)C(c2ccccc2)(c2ccccc2)N1` [Phenytoin], the total cell number is -0.28. With `O=C1NC(=O)C(c2ccccc2)(c2ccccc2)N1` [5,5-Diphenylhydantoin] the figure was -0.846; with `C#CCC(Cc1cnc2nc(N)nc(N)c2n1)c1ccc(C(=O)N[C@@H](CCC(=O)O)C(=O)O)cc1` (stereo partly specified) [Pralatrexate], -1.12; with `O=C(C[S+]([O-])Cc1ccco1)NC/C=C\COc1cc(CN2CCCCC2)ccn1` (stereo unspecified) [Lafutidine], 2.6.

The molecule `CCN(CC)CCCC(C)Nc1nc(C)cc(Nc2ccc3nc(C)cc(N)c3c2)n1` (stereo unspecified) yielded a total cell number of 1.62. The molecule `COc1c(N2CCNC(C)C2)c(F)cc2c(=O)c(C(=O)O)cn(C3CC3)c12` (stereo unspecified) [Gatifloxacin] displayed a total cell number of 1.28. Molecule `O=C(c1ccccc1)c1ccc2n1CCC2C(=O)O` (stereo unspecified) [Ketorolac] showed a total cell number of -2.4. As to `O=C(c1ccccc1)c1ccc2n1CCC2C(=O)O` (stereo unspecified) [Ketorolac tris salt], the total cell number is -1.79. With `O=C(Nc1ccccc1Br)N[C@@H]1CCN(c2ccc(C(F)(F)F)cn2)C1` the figure was -0.46; with `CN(C)CC(c1ccc(O)cc1)C1(O)CCCCC1` (stereo unspecified) [Desvenlafaxine Succinate], -3.69; with `CN(C)CC(c1ccc(O)cc1)C1(O)CCCCC1` (stereo unspecified) [Desvenlafaxine], -0.735. `O=C(NOCC(O)CO)c1cc(Br)c(F)c(F)c1Nc1ccc(I)cc1F` (stereo unspecified) had a total cell number of -7.65. Molecule `CC(=O)SCC(Cc1ccccc1)C(=O)NCC(=O)OCc1ccccc1` (stereo unspecified) [Racecadotril] showed a total cell number of -0.339. With `C[C@H](CCC(=O)O)[C@H]1CC[C@H]2[C@@H]3CC[C@@H]4C[C@H](O)CC[C@]4(C)[C@H]3CC[C@]12C` [Lithocholic acid], the total cell number was -1.83.

`O=C(O)/C=C/c1cnc[nH]1` [4-Imidazoleacrylic acid] displayed a total cell number of 0.0843.

Molecule `Cn1c(Nc2ccc(C(F)(F)F)cc2)nc2cc(Oc3ccnc(-c4ncc(C(F)(F)F)[nH]4)c3)ccc21` yielded a total cell number of -9.57. For the molecule `COC(=O)C1=C(C)NC(C)=C(C(=O)OC(C)C)C1c1cccc2nonc12` (stereo unspecified) [Isradipine], the total cell number is -1.15. For `CCOC(=O)Nc1ccc(NCc2ccc(F)cc2)nc1N` [Flupirtine maleate], the total cell number was -1.27 ± 0.77. With `O=C(O)CCCC[C@@H]1SC[C@@H]2NC(=O)N[C@@H]21` [Biotin (Vitamin B7)] the figure was -1.61; with `CC1COc2c(N3CCN(C)CC3)c(F)cc3c(=O)c(C(=O)O)cn1c23` (stereo unspecified) [Ofloxacin], -0.836. `CC(C)C(=O)Nc1ccc([N+](=O)[O-])c(C(F)(F)F)c1` [Flutamide] displayed a total cell number of -0.0898 ± 1.8.

Consider `CC(=O)Oc1cc2c(s1)CCN(C(C(=O)C1CC1)c1ccccc1F)C2` (stereo unspecified) [Prasugrel], for which the total cell number was -0.502.

As to `Cn1cnc([N+](=O)[O-])c1Sc1ncnc2[nH]cnc12` [Azathioprine], the total cell number is -4.77 ± 2. In turn, `CC(=O)OCC[N+](C)(C)C` [Acetylcholine Chloride] had a total cell number of 3.81. Turning to `C[C@H](c1ccc(F)cc1CCCC(=O)O)N(c1cc(F)ccc1F)S(=O)(=O)c1ccc(Cl)cc1`, the total cell number was -4.06.

As to `CC1(C)CCC2=C(O1)c1ccccc1C(=O)C2=O` [beta-Lapachone], the total cell number is -11.3. For the molecule `CC1(C)CCC2=C(O1)c1ccccc1C(=O)C2=O` [Beta-Lapachone], the total cell number is -16.5. Consider `S=C(NCc1ccc2c(c1)OCO2)N1CCN(c2ncnc3c2oc2ccccc23)CC1` [Amuvatinib (MP-470)], for which the total cell number is -20.1. The molecule `OCCN1C[C@H](O)[C@@H](O)[C@H](O)[C@H]1CO` [Miglitol] came in with a total cell number of -0.339.

`CC(C)CN(C[C@@H](O)[C@H](Cc1ccccc1)NC(=O)O[C@H]1CO[C@H]2OCC[C@H]21)S(=O)(=O)c1ccc(N)cc1` [Darunavir Ethanolate] gave a total cell number of 1.35. Molecule `COc1cc(/C=C/C(=O)CC(=O)/C=C/c2ccc(O)c(OC)c2)ccc1O` [Curcumin] returned a total cell number of -15.5.

Molecule `O=C1C(SCCO)=C(SCCO)C(=O)c2ccccc21` yielded a total cell number of -2.12. For `Cc1cc2c(F)c(Oc3ncnn4cc(OC[C@@H](C)O)c(C)c34)ccc2[nH]1`, the total cell number is -1.9.

The molecule `O=C(O)CSCC(=O)NC1CCSC1=O` (stereo unspecified) [Erdosteine] gave a total cell number of 1.24. In turn, `Fc1ccc([C@@H]2CCNC[C@H]2COc2ccc3c(c2)OCO3)cc1` [Paroxetine hydrochloride hemihydrate (MW = 374.83)] gave a total cell number of -10.1. `Fc1ccc([C@@H]2CCNC[C@H]2COc2ccc3c(c2)OCO3)cc1` [Paroxetine HCl] yielded a total cell number of -11. `Nc1nc(O)c2ncn(CCC(CO)CO)c2n1` [Penciclovir] registered a total cell number of -0.0924.

The molecule `CN(C/C=C/C#CC(C)(C)C)Cc1cccc2ccccc12` [Terbinafine HCl] registered a total cell number of 1.27. In turn, `CN(C/C=C/C#CC(C)(C)C)Cc1cccc2ccccc12` [Terbinafine] gave a total cell number of 0.0625. The molecule `O=c1[nH]cnc2c1ncn2[C@H]1CC[C@@H](CO)O1` [Didanosine] had a total cell number of -0.938.
